Test results from the supplement of paper PMC4166925.
± gives the standard deviation of the averaged measurements. The full ranking holds about 33,000 sequences; the median of “E-score (dimensionless, -0.5 to 0.5)” is about -0.046, and the highest 2% start at about 0.36. The list shows a part of the results.

These sequences were tested on T1, SpTbr T-box DNA-binding domain (GST fusion) (assay: PBM E-score of 8-mer (E-score (dimensionless, -0.5 to 0.5)); Tbr is Tbrain of the sea star Patiria miniata (Pm) or the sea urchin Strongylocentrotus purpuratus (Sp); higher = stronger binding preference; most listed sequences are background and not binding sites). Details: the construct has about 5 more residues each side.
T1 sequence: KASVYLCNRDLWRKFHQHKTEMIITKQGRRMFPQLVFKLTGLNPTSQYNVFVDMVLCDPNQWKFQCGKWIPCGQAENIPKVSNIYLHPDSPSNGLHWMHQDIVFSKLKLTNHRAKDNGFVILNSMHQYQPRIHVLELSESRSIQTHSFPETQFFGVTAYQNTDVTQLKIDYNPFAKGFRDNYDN
Outline: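 Using the Universal PBM Analysis Suite, every ungapped 8-mer received an enrichment E-score averaged over duplicate arrays. Probe intensities came from double-stranded Universal Agilent oligonucleotide arrays incubated with 200 nM GST-fused Tbr T-box DNA-binding domain in PBS (pH 7.5). That protein was expressed in BL21 E. coli at 20 °C and purified by glutathione affinity chromatography.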

Sequence	PBM E-score of 8-mer
TGGGAGAA	-0.0254 ± 0.0022
ATCAGCCG	-0.123 ± 0.047
ACATCCGC	0.0136 ± 0.097
CATCCGAC	-0.108 ± 0.023
ACAGGATG	-0.111 ± 0.049
ACAGGAGA	-0.145 ± 0.039
ACTCCCAG	0.0858 ± 0.029
CTCCGTGC	-0.0991 ± 0.035
ACAGGGAC	-0.102 ± 0.0015
ATCAACAG	0.0731 ± 0.027
AGATAGAA	-0.0892 ± 0.033
TAAACCCA	-0.148 ± 0.0035
CTTATCGA	0.163 ± 0.03
AGCTCCAT	-0.315 ± 0.018
GGTATATA	-0.0429 ± 0.029
ACACTATA	0.23 ± 0.03
CATGAGGC	-0.124 ± 0.056
GTCTATAA	-0.0104 ± 0.0026
AAGATAGG	-0.229 ± 0.0052
AGCATATG	-0.0659 ± 0.049
ATTGGGGC	-0.0682 ± 0.045
AAGGCCCG	-0.318 ± 0.03
ACAAATCG	0.196 ± 0.025
GCGATGCC	0.0595 ± 0.015
GTGAGCAA	0.265 ± 0.015

Sequence	PBM E-score of 8-mer
CCTAGGAC	0.0978 ± 0.0063
GAGTCAGC	-0.0991 ± 0.088
CCCCTCAC	0.262 ± 0.045
GCTTCTGA	-0.0414 ± 0.064
AGACATGA	0.132 ± 0.015
GGAACTTA	-0.159 ± 0.056
AAGAGCGT	-0.0424 ± 0.019
ATTCACAC	0.4807 ± 0.0029
GCTACGCA	-0.0506 ± 0.019
ATACCTCG	0.00151 ± 0.043
CCTATCGC	0.149 ± 0.041
AAGCGGGC	-0.113 ± 0.017
AGACGGCA	0.00839 ± 0.028
ATGGCGCC	0.165 ± 0.0062
AATCGCGA	0.3847 ± 0.00013
TATGTCAA	0.159 ± 0.0082
CCGATCCG	-0.0886 ± 0.024
AAGTCGCA	0.28 ± 0.038
CCATAAGC	-0.172 ± 0.05
CAGCACTG	-0.0534 ± 0.077
GGCAAGGA	-0.244 ± 0.051
CCGGTAAA	-0.2 ± 0.051
AAGAGAGC	-0.199 ± 0.0097
ACTCGACC	-0.0433 ± 0.057
ATAGATAA	-0.101 ± 0.015

Sequence	PBM E-score of 8-mer
CACTGTAG	0.053 ± 0.033
AGAGCGCC	-0.0169 ± 0.049
AGTACCGA	-0.261 ± 0.026
GCCACAAC	0.0707 ± 0.044
CCACAGGC	-0.146 ± 0.12
AGCCATCG	-0.0175 ± 0.019
GACTGATC	-0.171 ± 0.054
AAGCCCGC	-0.0846 ± 0.0062
ACGAGCCA	-0.0748 ± 0.035
GATTGACC	-0.0313 ± 0.036
GATTGACA	0.2837 ± 0.00092
AGGGTCTG	-0.176 ± 0.011
AGTCTAAT	0.00585 ± 0.07
CAGACCAG	-0.239 ± 0.019
CCTGTGCA	-0.0844 ± 0.033
AGACATTC	-0.1282 ± 0.0002
CCAAAGAA	-0.241 ± 0.035
ATAACTTA	-0.049 ± 0.042
CCCCGCCG	-0.106 ± 0.084
GAGTTGTA	0.201 ± 0.018
CATTAACA	0.329 ± 0.029
CGACTGAG	-0.101 ± 0.021
AGTGGAAT	-0.0775 ± 0.014
CCTAACGC	0.152 ± 0.0044
CATCAGTA	-0.126 ± 0.054

Sequence	PBM E-score of 8-mer
AGCTGAAT	-0.142 ± 0.0049
AACCGAGG	-0.0751 ± 0.0094
CGTTCCTC	-0.148 ± 0.039
CACTGTTA	0.152 ± 0.04
ACCGCTGC	0.0922 ± 0.006
CATTGTAA	-0.0254 ± 0.0014
CATCATGA	-0.186 ± 0.057
ACGACTCC	-0.0524 ± 0.027
AACCGCAG	-0.0985 ± 0.026
ACAGCTGC	0.213 ± 0.044
ATAACCTG	0.0328 ± 0.059
ATGATTGA	0.0921 ± 0.024
CTGACCTA	-0.222 ± 0.084
GGAGGGCC	-0.235 ± 0.047
ACCACACA	0.248 ± 0.037
CCACGCAC	0.126 ± 0.019
ATATGGTC	-0.197 ± 0.0088
ATCTGCCA	-0.0509 ± 0.028
CTCGCTTA	0.0203 ± 0.037
AAATTGTT	0.0233 ± 0.084
TGACAACA	0.358 ± 0.019
ACTAGGCC	0.00185 ± 0.069
AGTAAAGG	-0.0337 ± 0.045
AGAGGTGG	0.285 ± 0.031
CACGCGAG	0.281 ± 0.029

Sequence	PBM E-score of 8-mer
GAGCAGAC	0.0347 ± 0.054
CACATGCC	0.0851 ± 0.12
ACTCGCAT	-0.00696 ± 0.059
CTTGGGGA	-0.0447 ± 0.002
CCGTAAGG	-0.0419 ± 0.065
GTTAGATA	-0.00904 ± 0.0026
GGAACCTA	-0.211 ± 0.0083
ACTGAATG	-0.223 ± 0.044
CGCCTACG	0.0976 ± 0.047
TGACCAAA	-0.137 ± 0.02
ATTAGGCG	0.0618 ± 0.013
AATAATCT	-0.265 ± 0.044
ATGAACGA	-0.115 ± 0.065
CACCTCAA	0.375 ± 0.024
ATGACATC	-0.181 ± 0.077
CCCTAGGG	-0.203 ± 0.032
TTCAGGAA	-0.1413 ± 0.0005
CTTGCCAA	0.153 ± 0.021
AAAGACCA	-0.116 ± 0.022
GGTGACGA	0.418 ± 0.018
CAGCTCCC	-0.145 ± 0.07
GAACCTCC	-0.159 ± 0.023
ATTAAACA	0.104 ± 0.071
AATATCTA	-0.235 ± 0.068
CATCGATA	-0.00022 ± 0.06

Sequence	PBM E-score of 8-mer
CGCCGACG	0.0879 ± 0.094
ACACCCCC	0.363 ± 0.015
GTGGGAAC	0.336 ± 0.04
GGCGCCAC	0.285 ± 0.023
CAGCTTCC	-0.271 ± 0.0048
TGGATACA	-0.148 ± 0.033
AAAGTAAG	-0.0307 ± 0.034
CATCGGGC	-0.0542 ± 0.062
ACGACTAA	-0.113 ± 0.084
GCCAGCAA	-0.133 ± 0.075
CCCGTTGA	0.089 ± 0.041
GGCGGACC	-0.0977 ± 0.012
CTAAACAC	0.124 ± 0.019
AGGGATCG	0.0647 ± 0.027
CACCTCAG	0.376 ± 0.0075
CAAGGCCA	-0.167 ± 0.032
CGTGAGGC	0.103 ± 0.0066
GGCGGGAA	0.153 ± 0.029
ACGACTAT	-0.00137 ± 0.081
CTCATCCC	-0.108 ± 0.05
ACCGCCCT	-0.287 ± 0.031
CAGATTGC	-0.0789 ± 0.041
ATTTAGTC	-0.0782 ± 0.063
GCCAACTA	0.12 ± 0.022
CGAAAAGC	0.122 ± 0.042

Sequence	PBM E-score of 8-mer
CCATTCGC	0.244 ± 0.048
TGTCGTAA	0.122 ± 0.018
CCCGTGTC	0.00147 ± 0.088
CAGAGGAA	-0.137 ± 0.092
CACGGTCG	0.0413 ± 0.091
TCTAGGCA	-0.0589 ± 0.044
CTGTCTAA	-0.168 ± 0.068
TCCAAGCA	0.0015 ± 0.0059
GATTCCGC	-0.0748 ± 0.044
ACGGTGGG	-0.228 ± 0.054
ATCGTAAC	-0.00798 ± 0.067
CGGTACCG	-0.0929 ± 0.11
GGCTTTTA	-0.038 ± 0.049
GCTGGTCC	-0.247 ± 0.035
AATATGTC	-0.0493 ± 0.12
CGCGAGGA	0.257 ± 0.036
ACTTGTAA	0.0941 ± 0.097
AAATAAGC	-0.0321 ± 0.038
CGTGGGCC	-0.2894 ± 0.0004
AGCAAAAT	-0.0958 ± 0.067
CTGGACGA	0.115 ± 0.033
AAAACGGC	-0.091 ± 0.023
